A lower IC50 marks a more sensitive line; where the fit passes the top or lowest dose, that dose stands as a limit. The AUC spans the tested range (256-fold, ending at the top dose) of the same fit; values near 1 show little effect. For part of these data: Where the top dose is marked as inferred, it comes from the curve model; the source does not state it. For part of these data: Drugs with an entry number were screened twice under separate entries, and the two screens often disagree.
Experiments:
Assay in all cases: Viability of human cancer cell lines after 72 h of drug (GDSC screen)
OSU-03012 = compound: NCC(=O)Nc1ccc(-n2nc(C(F)(F)F)cc2-c2ccc3c(ccc4ccccc43)c2)cc1 [OSU-03012]; conditions: top dose 16 µM; top dose inferred
Procedure: (§1)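 Human cancer cell lines in 384-well plates, medium with 10% serum, drug for 72 h over a 256-fold dose range (nine 2-fold or five 4-fold steps up to the top dose). Adherent lines were fixed and stained with the nucleic acid dye Syto60, suspension lines read with resazurin; signal relative to control wells, capped at 0 and 100%. One two-parameter sigmoid per drug and line, fitted in a mixed model over all curves with the slope shared within a line.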

JNK-9L = compound: Fc1cc(-c2ccnc(Nc3ccc(-n4cnc(N5CCOCC5)n4)cc3)n2)cc(N2CCOCC2)c1 [JNK-9L]; conditions: top dose 5.12 µM; top dose inferred
Procedure: as §1

AC220 = compound: CC(C)(C)c1cc(NC(=O)Nc2ccc(-c3cn4c(n3)sc3cc(OCCN5CCOCC5)ccc34)cc2)no1 [AC220]; conditions: top dose 1.024 µM; top dose inferred
Procedure: as §1

QS11 = compound: OC[C@H](Cc1ccccc1)Nc1nc(Oc2ccc3c(c2)CCC3)nc2c1ncn2Cc1ccc(-c2ccccc2)cc1 [QS11]; conditions: top dose 10.24 µM
Procedure: as §1

CUDC-101 = compound: C#Cc1cccc(Nc2ncnc3cc(OC)c(OCCCCCCC(=O)NO)cc23)c1 [CUDC-101]; conditions: top dose 5.12 µM; top dose inferred
Procedure: as §1

RDEA119 = compound: COc1cc(F)c(F)c(Nc2ccc(I)cc2F)c1NS(=O)(=O)C1(C[C@H](O)CO)CC1 [RDEA119]; conditions: top dose 5 µM, top dose inferred
Procedure: as §1

5-Fluorouracil = compound: O=c1[nH]cc(F)c(=O)[nH]1 [5-Fluorouracil]; conditions: top dose 32 µM; top dose inferred
Procedure: as §1

Cell Line | AUC (OSU-03012) | IC50 (OSU-03012) [nM] | AUC (JNK-9L) | IC50 (JNK-9L) [nM] | AUC (AC220) | IC50 (AC220) [nM] | AUC (QS11) | IC50 (QS11) [nM] | AUC (CUDC-101) | IC50 (CUDC-101) [nM] | AUC (RDEA119; screen: GDSC drug entry 1014) | IC50 (RDEA119; screen: GDSC drug entry 1014) [nM] | AUC (RDEA119; screen: GDSC drug entry 1526) | IC50 (RDEA119; screen: GDSC drug entry 1526) [nM] | AUC (5-Fluorouracil) | IC50 (5-Fluorouracil) [nM]
Hs-578-T (breast, adherent) | 0.876 | > 16000 | 0.924 | > 5120 | 0.987 | > 1020 | 0.986 | > 10200 | 0.729 | 1510 | 0.721 | 1380 | 0.848 | 4070 |  | 
HCC-78 (lung adenocarcinoma, adherent) | 0.888 | > 16000 | 0.719 | 1500 | 0.976 | > 1020 | 0.973 | > 10200 | 0.423 | 190 | 0.835 | 4130 | 0.875 | > 5000 |  | 
T-24 (bladder, adherent) | 0.881 | 15500 | 0.745 | 1550 | 0.983 | > 1020 | 0.987 | > 10200 | 0.711 | 1220 |  |  | 0.801 | 2300 |  | 
BxPC-3 (pancreas, adherent) | 0.7 | 3940 | 0.512 | 347 | 0.983 | > 1020 | 0.915 | > 10200 | 0.564 | 490 | 0.745 | 1730 | 0.756 | 1900 |  | 
NCI-H1876 (small cell lung carcinoma, adherent) | 0.851 | 12500 | 0.842 | 3670 | 0.983 | > 1020 | 0.968 | > 10200 | 0.462 | 251 | 0.98 | > 5000 | 0.974 | > 5000 |  | 
BT-20 (breast, adherent) | 0.862 | > 16000 | 0.596 | 627 | 0.971 | > 1020 | 0.982 | > 10200 | 0.694 | 1290 | 0.894 | > 5000 | 0.951 | > 5000 |  | 
HSC-4 (head and neck, adherent) | 0.721 | 5300 | 0.665 | 1080 | 0.979 | > 1020 | 0.976 | > 10200 | 0.507 | 336 |  |  | 0.424 | 181 |  | 
CAL-12T (non-small cell lung carcinoma, adherent) | 0.504 | 1030 | 0.645 | 847 | 0.967 | > 1020 | 0.696 | 2440 | 0.751 | 1870 | 0.692 | 1160 | 0.836 | 3900 |  | 
ME-180 (cervix, adherent) | 0.716 | 4230 | 0.61 | 650 | 0.975 | > 1020 | 0.972 | > 10200 | 0.455 | 239 | 0.879 | > 5000 | 0.855 | 4260 |  | 
NCI-H446 (small cell lung carcinoma, semi-adherent) | 0.908 | > 16000 | 0.704 | 1260 | 0.934 | > 1020 | 0.982 | > 10200 | 0.402 | 169 | 0.966 | > 5000 | 0.984 | > 5000 |  | 
786-0 (kidney, adherent) | 0.402 | 551 | 0.494 | 309 | 0.987 | > 1020 | 0.607 | 1230 | 0.526 | 375 | 0.784 | 1940 | 0.821 | 2600 |  | 
HCC-44 (lung adenocarcinoma, adherent) | 0.558 | 1440 | 0.48 | 283 | 0.984 | > 1020 | 0.753 | 3360 | 0.585 | 545 | 0.472 | 263 | 0.721 | 1300 |  | 
SBC-5 (small cell lung carcinoma, adherent) | 0.743 | 4210 | 0.579 | 505 | 0.986 | > 1020 | 0.917 | > 10200 | 0.565 | 465 | 0.967 | > 5000 | 0.949 | > 5000 |  | 
COR-L303 (small cell lung carcinoma, suspension) |  |  |  |  | 0.981 | > 1020 |  |  | 0.165 | 32 |  |  |  |  | 0.889 | > 32000
UACC-257 (melanoma, adherent) | 0.858 | > 16000 | 0.687 | 1230 | 0.972 | > 1020 | 0.974 | > 10200 | 0.517 | 361 | 0.36 | 116 | 0.435 | 199 |  | 
CFPAC-1 (pancreas, adherent) | 0.712 | 4370 | 0.591 | 590 | 0.984 | > 1020 | 0.906 | > 10200 | 0.943 | > 5120 | 0.844 | 4360 | 0.774 | 2250 |  | 
NCI-H460 (large cell lung carcinoma, adherent) | 0.549 | 1340 | 0.519 | 360 | 0.989 | > 1020 | 0.747 | 3010 | 0.961 | > 5120 | 0.81 | 2330 | 0.867 | 3790 |  | 
KM12 (large intestine, adherent) | 0.618 | 2180 | 0.445 | 223 | 0.941 | > 1020 | 0.889 | > 10200 | 0.673 | 1020 | 0.831 | 3540 | 0.931 | > 5000 |  | 
SNU-175 (large intestine, suspension) |  |  |  |  | 0.877 | 917 |  |  | 0.427 | 205 |  |  |  |  | 0.785 | 12800
